Inconclusive results, whose numbers are uncertain, are shown with a selection of clear calls. Potencies beside an inconclusive call are fits to weak or partial responses and may not hold up. A note “side channel” means that the fit belongs to a control or component signal, not to the main read-out. Activity calls are given as the source filed them. Calls come from the whole dose curve; as a rule, active = well fitted activation curve with a large enough effect in the signal ratio, with a control signal flat (not every such curve was filed as active); inconclusive = small, poorly fitted or top-dose-only effect, or effect the other way, or a change in a side signal; inactive = flat fitted curve, though single readings scatter; the % refers to the signal ratio.
Experiment: qHTS Assay for Identification of Small Molecule Agonists for Hypoxia Response Element Signaling Pathway (AID 914); for activation: top concentration of the series differs between compounds; % of control where 0% means no effect
Conditions: ME-180 (cervical carcinoma) HRE-bla reporter, beta-lactamase ratio, CoCl2, 17 h; activation: hits give high values
Summary of the method: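 Compounds in a titration series were added to ME-180 reporter cells alongside an EC50 level of CoCl2. After 17 hours, beta-lactamase activity was read as the 460nm/530nm emission ratio of CCF4, giving AC50 values.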
Potency is the fitted concentration of half-maximal effect; tags give direction and shape of the fitted curve or compound fluorescence and quenching.

Row | SMILES | activation | Potency
1 | Cc1cc(=O)[nH]c2cc3oc4ccccc4c3cc12 | inactive: -6.85% | 
2 | COc1cccc(C(=O)N2CCN(S(=O)(=O)Cc3ccccc3)CC2)c1OC |  | inconclusive: 12.6 µM [inhibitor, single point]
3 | CC(=O)N(C[C@@H](O)CO)c1c(I)c(C(=O)NC[C@@H](O)CO)c(I)c(C(=O)NC[C@@H](O)CO)c1I |  | inconclusive: 5.01 µM [inhibitor, single point]
4 | c1ccc2nc(CC[C@@H]3CCCCN3)ccc2c1 | inactive: -14.2% | 
5 | Cc1ccc2[nH]c3c(N4CCOCC4)ncnc3c2c1 |  | inconclusive: 6.31 µM [inhibitor, partial curve]
6 | Cc1nc2cccc([N+](=O)[O-])c2n1CCCN(C)C | inconclusive: 13.8% | 
7 | O=C1c2cccc(O)c2C(=O)c2c(O[C@@H]3O[C@H](CO)[C@@H](O)[C@H](O)[C@@H]3O)cccc21 |  | inconclusive: 0.199 µM [cytotoxic, side channel, single point]
8 | CN=C1c2c(-c3ccccc3)c3cc(OC)ccc3n2CCN1C |  | inconclusive: 6.31 µM [activator, partial curve]
9 | CC1(C)Cc2c(C#N)c(N3CCN(C(=O)c4ccccc4)CC3)nc(-c3ccco3)c2CS1 | inconclusive: -26.2% | 
10 | CCCc1nnc(NC(=O)c2c(O)c3c([nH]c2=O)CCCC3)s1 |  | inconclusive: 12.6 µM [inhibitor, single point]
11 | Nc1cccc(OCc2nc(N)nc(N)c2-c2ccc(Cl)cc2)c1 | inconclusive: 11.3% | 
12 | CCN(CC)CCNC(=O)c1ccccc1N | inactive: 10.3% | 
13 | Cc1nnc(SCC(=O)N2CCOCC2)c2ccccc12 | inconclusive: -38.8% | 
14 | CO[C@@H]1COC(=O)[C@@H](C)COC(=O)[C@@H](C)NC(=O)C/C=C\[C@@H]1C | inconclusive: -5.25% | 
15 | O=C1c2ccccc2C(=O)N1CC1c2ccccc2CCN1C(=O)N1CCOCC1 (stereo not given) | inactive: 4.7% | 
16 | Cc1ccc(N2C(=O)[C@@H]3[C@H](C2=O)C2CCCN2[C@@H]3C(=O)c2ccccc2)cc1 (stereo not given in full) |  | inconclusive: 12.6 µM [inhibitor, single point]
17 | CCOC(=O)Cc1[nH]nc2c1C(c1cc(OC)ccc1OC)C(C#N)=C(N)O2 (stereo not given) |  | inconclusive: 5.01 µM [inhibitor, single point]
18 | O=C(O)c1c(-c2c3ccc(=O)cc-3oc3cc(O)ccc23)cc2ccccc2c1-c1ccccc1 | inconclusive: 6.44% | 
19 | COCCCn1c(C)nc2c(c1=O)c1nc3ccccc3nc1n2CCc1ccccc1 | inactive: -19.8% | 
20 | C/C=C\C1=C(CO)C(=O)[C@@H]2OC2C1=O (stereo not given in full) |  | inconclusive: 3.98 µM [inhibitor, partial curve]

Row | SMILES | activation | Potency
21 | NS(=O)(=O)c1cc(Br)c(N=Nc2ccc(O)c3ncccc23)c(Br)c1 |  | inconclusive: 1 µM [cytotoxic, side channel, single point]
22 | O=c1cc(N2CCCCC2)nc2n1CCCS2 |  | active: 6.31 µM
23 | CCC(C)(C)c1ccc(Oc2cccc(C(=O)O)c2)cc1 | inconclusive: -11.4% | 
24 | Cc1cc(=O)oc2c(CN3CCN(C)CC3)c(O)c(Cl)cc12 |  | inconclusive: 7.94 µM [activator, partial curve]
25 | O=C(O)CC(C(=O)N(c1ccccc1)c1ccccc1)N1CCOCC1 (stereo not given) | inconclusive: 25.1% | 
26 | Cn1c(=O)c2c(nc(N3CCN(Cc4ccccc4)CC3)n2CC(=O)c2ccccc2)n(C)c1=O |  | inconclusive: 5.01 µM [inhibitor, partial curve]
27 | NCC(=O)NC1(C(=O)O)CCCC1 | inconclusive: 6.34% | 
28 | COC(=O)[C@]1(C)CCC(c2ccc(C)cc2)=C(CC(=O)O)C1 | inactive: 4.66% | 
29 | C[N+](C)(C)c1ncnc2c1ncn2[C@@H]1C[C@H](O)[C@@H](CO)O1 |  | inconclusive: 0.1 µM [inhibitor, single point]
30 | COc1ccc(OC)c(C2NC(=O)c3sc(=S)n(-c4ccccc4)c3N2)c1 (stereo not given) | inconclusive: -18.1% | 
31 | Cc1ccc(-c2n[nH]c(=O)c3ccccc23)cc1S(=O)(=O)NCCN1CCOCC1 | inactive: -17.3% | 
32 | N#Cc1c(N)nc(SCC(=O)NCCc2ccccc2)c(C#N)c1-c1cccs1 | inconclusive: 50.8% | 
33 | COC(=O)c1ccccc1NC(=O)C1COc2ccccc2O1 (stereo not given) | inconclusive: 38.2% | 
34 | Cc1ccc(S(=O)(=O)Oc2cc(S(=O)(=O)O)cc3cc(S(=O)(=O)O)cc(N)c23)cc1 | inactive: -7.4% | 
35 | CC(=O)Nc1n[nH]c(S(=O)(=O)Cc2ccc(Cl)cc2Cl)n1 | inconclusive: 28.9% | 
36 | Cc1c(N2C(=O)SC(CC(=O)O)C2=O)c(=O)n(-c2ccccc2)n1C (stereo not given) | inconclusive: 15.4% | 
37 | C[C@H]1[C@H](C)CC[C@]2(C(=O)O)CC[C@]3(C)C(=CC[C@@H]4[C@]5(C)C[C@H](O)[C@@H](O)[C@@](C)(CO)[C@@H]5[C@H](O)C[C@@]43C)[C@H]12 | inconclusive: -14.7% | 
38 | O=C(O)C1CC(=O)n2c(nc3ccccc32)S1 (stereo not given) | inconclusive: -32% | 
39 | C=C1CC[C@H](O)C/C1=C/C=C1\CCC[C@]2(C)[C@H]1CC[C@H]2[C@@H](C)CCCC(C)C | inactive: -0.192% | 
40 | COc1ccccc1C(=O)Nc1cc(Cl)ccc1O |  | inconclusive: 0.1 µM [inhibitor, full curve]
